# From paper PMC4336329 (PLoS ONE, 2015)
# Out of some 310,000 compounds screened, about 2,200 (0.71%) showed an effect of 50% or more. The effect is printed as a negative number. The list shows a part of the results.
# Biological target: human ether-à-go-go-related gene (hERG) potassium channel (human, UniProt Q12809)
# Experiment: primary screen, population patch clamp on CHO cells stably expressing hERG
# human ether-à-go-go-related gene (hERG) potassium channel, sequence (Q12809 whole entry, looked up): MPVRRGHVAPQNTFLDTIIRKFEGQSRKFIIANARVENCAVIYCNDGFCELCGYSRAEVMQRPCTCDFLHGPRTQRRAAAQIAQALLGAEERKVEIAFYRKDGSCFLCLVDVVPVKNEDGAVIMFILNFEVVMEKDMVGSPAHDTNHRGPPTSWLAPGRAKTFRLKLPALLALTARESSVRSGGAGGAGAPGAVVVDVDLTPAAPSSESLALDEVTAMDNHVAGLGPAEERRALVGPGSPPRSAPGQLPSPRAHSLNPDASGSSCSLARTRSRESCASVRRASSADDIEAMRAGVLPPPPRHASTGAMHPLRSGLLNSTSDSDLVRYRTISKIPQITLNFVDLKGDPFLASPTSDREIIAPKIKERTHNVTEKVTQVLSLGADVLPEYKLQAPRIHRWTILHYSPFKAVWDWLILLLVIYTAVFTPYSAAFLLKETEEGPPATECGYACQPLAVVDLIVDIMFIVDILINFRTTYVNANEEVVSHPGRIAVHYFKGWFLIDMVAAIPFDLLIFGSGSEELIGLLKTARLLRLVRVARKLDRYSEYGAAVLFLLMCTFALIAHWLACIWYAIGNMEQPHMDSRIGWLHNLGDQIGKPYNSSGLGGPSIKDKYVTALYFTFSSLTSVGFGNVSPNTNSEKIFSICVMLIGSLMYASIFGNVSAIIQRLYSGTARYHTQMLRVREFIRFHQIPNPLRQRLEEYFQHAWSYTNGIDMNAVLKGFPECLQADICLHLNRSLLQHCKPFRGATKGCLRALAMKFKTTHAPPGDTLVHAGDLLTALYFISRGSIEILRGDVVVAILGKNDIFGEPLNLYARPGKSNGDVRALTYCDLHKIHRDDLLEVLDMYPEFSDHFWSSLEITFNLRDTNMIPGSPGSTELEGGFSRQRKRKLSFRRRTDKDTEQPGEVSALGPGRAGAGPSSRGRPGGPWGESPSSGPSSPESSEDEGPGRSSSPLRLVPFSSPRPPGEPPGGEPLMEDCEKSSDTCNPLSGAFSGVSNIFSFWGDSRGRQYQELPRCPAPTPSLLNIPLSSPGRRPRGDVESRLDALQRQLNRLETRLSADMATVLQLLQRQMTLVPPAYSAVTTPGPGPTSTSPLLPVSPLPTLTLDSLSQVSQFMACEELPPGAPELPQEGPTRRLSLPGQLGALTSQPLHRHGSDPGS
row,SMILES,"hERG current change (%, negative = inhibition) at 1uM [%]"
1,COc1ccc(CNc2ncnc3cc(OC)c(OC)cc23)cc1,10.3
2,CCC(C)Sc1ccc([C@@H]2[C@H]3C(=O)N(CC)C(=O)[C@H]3[C@]3(C(=O)OC)CCCCN23)cc1.O=C(O)C(F)(F)F (stereo partly drawn),14
3,C=CCNC(=S)Nc1cccc(NC(=S)NCC=C)c1,0.75
4,CC1(C)Oc2cc(N)c([N+](=O)[O-])cc2O1,15.8
5,CCC1CCCCN1Cc1nc2c(c(=O)n(C)c(=O)n2C)n1Cc1ccccc1 (stereo not drawn),-0.863
6,CCOC(=O)c1c(S(=O)(=O)N2CCCC(C(=O)Nc3cccc(C)n3)C2)c(C)n(C)c1C (stereo not drawn),4.34
7,CCOc1ccc(CCNC(=O)c2cc(-c3ccccc3)c(N3CCOCC3)s2)cc1,12.5
8,CN(CCCC(=O)NCc1ccccc1)S(=O)(=O)c1ccc([N+](=O)[O-])cc1,-10.6
9,C/C(=N\N1CCCCCC1)c1c(O)n(-c2ccc(C)cc2)c(=O)[nH]c1=O,12.9
10,CCOc1ccc(C(C)=O)cc1CSC(=N)N.Cl,18.8
11,CC1Nc2ccc(C(=O)NC3CCCCC3)cc2NC1=O (stereo not drawn),15.6
12,CCC(C)NC(=O)C1CC(c2cccc(OC)c2)=NO1 (stereo not drawn),16.2
13,CCN1CCN(C(CNS(=O)(=O)c2ccc(F)cc2)c2cccnc2)CC1 (stereo not drawn),5.34
14,CCOc1ccccc1NC(=O)c1cc(S(=O)(=O)N2CCOCC2)ccc1C,5.25
15,Cc1ccccc1CNC(=O)CN(c1cccc([N+](=O)[O-])c1)S(C)(=O)=O,8.52
16,COC(=O)c1onc(-c2c(C)cc(C)cc2C)c1C(=O)OC,20.3
17,O=c1c2cc(NC(=S)N3CCC(N4CCCCC4)CC3)ccc2nc2n1CCCCC2,2.8
18,COc1ccc(CNCc2cccc3ccccc23)cc1.O=C(O)C(=O)O,-2.81
19,CCn1c(=O)cc(SCC(=O)NCCC2=CCCCC2)c2ccccc21,2.18
20,C=CCn1c(Oc2ccccc2)nc2c1c(=O)n(C)c(=O)n2C,7.67
21,COc1cccc(NC(=O)CSc2nnc(CN3CCOCC3)n2C)c1,-3.08

row,SMILES,"hERG current change (%, negative = inhibition) at 1uM [%]"
1,COc1cc(OC)c(C2=NOC(C(=O)Nc3cc(C)nn3-c3ccccc3)C2)cc1Cl (stereo not drawn),1.76
2,Nc1c(C(=O)O)sc2nc(-c3ccccc3)c3c(c12)CCCC3,17.4
3,Cn1c(=O)c2c(nc(NC3CCCC3)n2C)n(C)c1=O,13
4,COc1ccc(CNC(=O)C2CC(C)=C(C)CC2C(=O)O)cc1 (stereo not drawn),7.52
5,Cc1ccccc1C(=O)N1CCc2cc(-c3nc(NC(=O)Cc4ccc5c(c4)OCO5)sc3C)ccc21,9.57
6,Cc1ccc(C(=O)CCC(=O)Nc2ccccc2C)cc1C,15.8
7,CCOC(=O)C1=C(c2ccccc2)NC(SCC(N)=O)=C(C#N)C1c1cccnc1 (stereo not drawn),5.27
8,CN(CC(=O)Nc1ccc(F)cc1)C(=O)Cc1ccsc1,5.56
9,Cc1cc(Br)cnc1NC(=S)Nc1ccc(F)cc1F,5.51
10,CC(C)OCCCNC(=S)Nc1ccc(S(N)(=O)=O)cc1,1.53
11,CN(C[C@H](Cc1ccccc1)N(C[C@H](Cc1ccccc1)N(CCC(C)(C)C)N=O)N=O)N=O.[Na+],11.9
12,CCCSc1nc2c3c(sc2c(=O)[nH]1)CC(C)(CC)OC3 (stereo not drawn),7.53
13,O=C(Nc1ccc(Cl)c([N+](=O)[O-])c1)c1cnccn1,12.5
14,O=C(CN1CCN(c2ccccc2F)CC1)c1ccc(O)cc1O,16.2
15,O=C(CN1CCCCCC1)Nc1ccc(S(=O)(=O)N2CCCCC2)cc1,6.38
16,CCOC(=O)N1CCN(CC(=O)N2CCC(C(N)=O)CC2)CC1,6.92
17,CC1(C)CC(=O)c2sc(NC(=O)c3ccc4ncsc4c3)nc2C1,2.99
18,Cc1ccc(C(=O)NC(=S)NCc2cccnc2)c(C)c1,12.1
19,CCOc1cc(N2CCOCC2)c(OCC)cc1NC(=O)CSc1ccccc1C(=O)O,7.07
20,CC(=O)O.COc1ccc(C2Nc3ccccc3C(=O)N2Cc2ccco2)cc1CN1C(=O)c2ccccc2C1=O (stereo not drawn),4.8
21,Cc1oc(/N=C/c2ccccc2)c(C#N)c1C,16.9
